Laboratory results published in publication PMC10167348, “Structural mechanisms of TRPM7 activation and inhibition” (Nature Communications, 2023).
Where “and” joins values, the source holds several entries; their conditions need not be identical. Equal values may be shown once. Further values from the same series stand in other lists.

Legend:
Assay in all cases: Aequorin-based Ca2+ influx assay, activation by naltriben
Format in all cases: cell-based
Settings in all cases: replicate values
TRPM7-N752K = target: T1, TRPM7-N752K (Mus musculus, UniProt Q923J1, N752K)
T1 construct: expressed in transfected cells; host or cells: HEK 293T
Method: (§1) Measurements of [Ca^2+]i were performed as reported previously with several modifications[2],[52],[54]. HEK 293T cells (mycoplasma test negative, ATCC #CRL3216) were maintained at 37 °C and 5% CO2 in DMEM supplemented with 10% fetal calf serum, 100 µg/ml streptomycin and 100 U/ml penicillin (all from Thermo Fisher Scientific). Cells cultured in six-well plates (~60% confluence) were transfected with 2 µg/dish Trpm7 plasmid DNA and 0.1 µg/dish pG5A plasmid DNA encoding eGFP fused to Aequorea victoria aequorin, using Lipofectamine 2000 (Thermo Fisher Scientific). Twenty-four hours after transfection, the cells were washed with Mg^2+-free HEPES-buffered saline (Mg^2+-free HBS) containing 140 mM NaCl, 6 mM KCl, 0.5 mM CaCl2, 10 mM HEPES (pH 7.4) and 5 mM glucose, and mechanically resuspended in the Mg^2+-free HBS. For reconstitution of aequorin, cell suspensions were incubated with 5 µM coelenterazine (Biaffin GmbH) in the Mg^2+-free HBS for 30 min at room temperature. Cells were washed twice by centrifugation at 600 rpm for 5 min (Heraeus Pico 17 microcentrifuge, Thermo Fisher Scientific), resuspended in the Mg^2+-free HBS and aliquoted into 96-well plates (1 × 10^5 cells per well). Luminescence was detected at room temperature using a FLUOstar OPTIMA microplate reader (BMG LABTECH GmbH). To monitor the NS8593- and VER155008-induced inhibition of TRPM7-mediated Ca^2+ influx, the extracellular concentration of Ca^2+ was increased to 5 mM by injecting the CaCl2-containing Mg^2+-free HBS in the absence or presence of the inhibitors. […] To study activation by naltriben, TRPM7-transfected cells were exposed to Mg^2+-free HBS containing different concentrations of the agonist. The experiments were terminated by lysing cells with 0.1% (v/v) Triton X-100 in the Mg^2+-free HBS to record the total bioluminescence. The bioluminescence rates (counts/s) were analyzed at 1-s intervals and calibrated as [Ca^2+]i values using the following equation:1 p[Ca^2+]i=0.332588(−log(k))+5.5593 where k represents the rate of aequorin consumption, i.e., counts/s divided by the total number of counts.
(§2) To determine the IC50 values for NS8593 and VER155008 (EC50 for naltriben), the data were fitted with the following logistic equation:2 Ec=Emin+Emax+Emin/1+c^h/IC50^h where E(c) is the functional effect at the concentration c of the compound, Emin is the minimal effect, Emax is the maximal effect, IC50 (EC50) is the concentration of the compound that produces the half-maximal effect, and h is the Hill coefficient. Fitting of dose-response curves was performed using GraphPad Prism 8.4.0. Data are presented as the mean ± SEM.

TRPM7-S744A = target: T2, TRPM7-S744A (Mus musculus, UniProt Q923J1, S744A)
T2 construct: expressed in transfected cells; host or cells: HEK 293T
Method: as §1, §2

TRPM7-L671A/N752K = target: T3, TRPM7-L671A/N752K (Mus musculus, UniProt Q923J1, L671A/N752K)
T3 construct: expressed in transfected cells; host or cells: HEK 293T
Method: as §1, §2

TRPM7 WT = target: T4, TRPM7 WT (Mus musculus, UniProt Q923J1)
T4 construct: expressed in transfected cells; host or cells: HEK 293T
Method: as §1, §2

TRPM7-L671A = target: T5, TRPM7-L671A (Mus musculus, UniProt Q923J1, L671A)
T5 construct: expressed in transfected cells; host or cells: HEK 293T
Method: as §1, §2

T4 sequence (Q923J1 whole entry): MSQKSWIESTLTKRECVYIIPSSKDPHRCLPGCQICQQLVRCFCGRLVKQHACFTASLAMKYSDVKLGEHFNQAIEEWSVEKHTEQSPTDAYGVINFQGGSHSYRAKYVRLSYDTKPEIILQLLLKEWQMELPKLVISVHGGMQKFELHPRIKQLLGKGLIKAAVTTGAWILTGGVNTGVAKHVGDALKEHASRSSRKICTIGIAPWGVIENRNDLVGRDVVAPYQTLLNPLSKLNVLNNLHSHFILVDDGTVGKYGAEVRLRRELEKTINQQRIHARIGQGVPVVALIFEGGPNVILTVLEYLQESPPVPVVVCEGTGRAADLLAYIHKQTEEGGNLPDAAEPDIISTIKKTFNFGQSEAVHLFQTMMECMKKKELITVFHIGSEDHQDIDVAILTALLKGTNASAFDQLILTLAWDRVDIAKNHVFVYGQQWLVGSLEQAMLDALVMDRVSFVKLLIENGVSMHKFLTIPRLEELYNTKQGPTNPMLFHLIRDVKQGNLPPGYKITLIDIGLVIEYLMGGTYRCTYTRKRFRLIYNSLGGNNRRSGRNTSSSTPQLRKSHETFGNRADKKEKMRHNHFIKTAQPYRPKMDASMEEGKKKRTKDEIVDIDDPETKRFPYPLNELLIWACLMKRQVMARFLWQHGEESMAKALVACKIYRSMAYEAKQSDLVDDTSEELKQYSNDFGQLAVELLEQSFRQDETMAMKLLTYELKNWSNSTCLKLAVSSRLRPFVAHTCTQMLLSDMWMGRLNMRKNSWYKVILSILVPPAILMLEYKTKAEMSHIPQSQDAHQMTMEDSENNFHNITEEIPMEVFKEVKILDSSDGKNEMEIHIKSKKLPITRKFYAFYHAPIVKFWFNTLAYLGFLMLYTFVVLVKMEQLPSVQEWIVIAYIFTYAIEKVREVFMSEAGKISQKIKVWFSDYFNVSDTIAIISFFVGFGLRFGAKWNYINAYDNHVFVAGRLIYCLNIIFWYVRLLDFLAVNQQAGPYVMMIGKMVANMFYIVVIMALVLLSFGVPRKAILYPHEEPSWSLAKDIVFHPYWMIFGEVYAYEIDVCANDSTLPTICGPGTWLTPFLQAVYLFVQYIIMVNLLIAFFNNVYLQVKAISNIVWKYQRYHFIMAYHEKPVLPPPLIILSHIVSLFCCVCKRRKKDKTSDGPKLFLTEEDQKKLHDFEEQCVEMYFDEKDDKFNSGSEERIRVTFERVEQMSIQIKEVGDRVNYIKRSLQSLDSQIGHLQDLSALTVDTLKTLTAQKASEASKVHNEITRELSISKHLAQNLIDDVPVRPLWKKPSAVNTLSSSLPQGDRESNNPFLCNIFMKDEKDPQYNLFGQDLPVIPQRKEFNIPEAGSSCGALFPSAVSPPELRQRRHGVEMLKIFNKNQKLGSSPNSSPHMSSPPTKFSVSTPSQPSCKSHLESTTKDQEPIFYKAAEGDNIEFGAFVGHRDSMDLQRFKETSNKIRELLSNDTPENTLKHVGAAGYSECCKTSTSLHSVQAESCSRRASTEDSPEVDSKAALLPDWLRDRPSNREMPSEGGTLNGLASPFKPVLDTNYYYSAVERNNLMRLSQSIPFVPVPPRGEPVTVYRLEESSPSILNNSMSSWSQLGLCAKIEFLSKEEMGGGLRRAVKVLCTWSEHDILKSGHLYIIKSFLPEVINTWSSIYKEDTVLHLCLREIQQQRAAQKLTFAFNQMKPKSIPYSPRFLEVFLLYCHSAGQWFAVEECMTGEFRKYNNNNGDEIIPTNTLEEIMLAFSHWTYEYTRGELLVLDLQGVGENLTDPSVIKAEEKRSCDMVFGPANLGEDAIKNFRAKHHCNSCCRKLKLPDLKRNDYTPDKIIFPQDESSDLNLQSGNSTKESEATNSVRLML
T1 sequence (Q923J1 whole entry N752K): as the sequence (Q923J1 whole entry) above, with N752K counted along it
T2 sequence (Q923J1 whole entry S744A): as the sequence (Q923J1 whole entry) above, with S744A counted along it
T5 sequence (Q923J1 whole entry L671A): as the sequence (Q923J1 whole entry) above, with L671A counted along it
T3 sequence (Q923J1 whole entry L671A/N752K): as the sequence (Q923J1 whole entry) above, with L671A, N752K counted along it

## Oc1ccc2c3c1O[C@H]1c4oc5ccccc5c4C[C@@]4(O)[C@@H](C2)N(CC2CC2)CC[C@]314 [Naltriben, naltriben]
TRPM7-N752K; [Naltriben] 10 µM
  TRPM7 activation, fold: 0.98 fold and 0.99 fold (2×)
TRPM7-N752K; [Naltriben] 20 µM
  TRPM7 activation, fold: 1.10 fold and 1.05 fold and 1.04 fold
TRPM7-N752K; [Naltriben] 30 µM
  TRPM7 activation, fold: 1.15 fold and 1.11 fold and 1.00 fold
TRPM7-N752K; [Naltriben] 40 µM
  TRPM7 activation, fold: 1.20 fold and 1.14 fold and 1.27 fold
TRPM7-N752K; [Naltriben] 50 µM
  TRPM7 activation, fold: 1.30 fold and 1.08 fold and 1.41 fold
TRPM7-N752K; [Naltriben] 100 µM
  TRPM7 activation, fold: 1.63 fold and 1.42 fold and 1.62 fold
TRPM7-N752K; [Naltriben] 200 µM
  TRPM7 activation, fold: 2.39 fold and 2.25 fold and 2.30 fold
TRPM7-N752K; [Naltriben] 300 µM
  TRPM7 activation, fold: 3.09 fold and 2.81 fold and 2.86 fold
TRPM7-N752K; [Naltriben] 400 µM
  TRPM7 activation, fold: 3.30 fold and 2.98 fold and 2.99 fold
TRPM7-N752K; [Naltriben] 500 µM
  TRPM7 activation, fold: 3.34 fold and 3.09 fold and 3.18 fold
TRPM7-S744A; [Naltriben] 10 µM
  TRPM7 activation, fold: 1.12 fold and 1.19 fold and 1.07 fold and 1.01 fold
TRPM7-S744A; [Naltriben] 20 µM
  TRPM7 activation, fold: 1.20 fold and 1.38 fold and 1.17 fold and 1.13 fold
TRPM7-S744A; [Naltriben] 30 µM
  TRPM7 activation, fold: 1.46 fold and 1.58 fold and 1.40 fold and 1.28 fold
TRPM7-S744A; [Naltriben] 40 µM
  TRPM7 activation, fold: 1.64 fold and 1.74 fold and 1.55 fold and 1.62 fold
TRPM7-S744A; [Naltriben] 50 µM
  TRPM7 activation, fold: 1.84 fold and 1.89 fold and 1.78 fold and 1.66 fold
TRPM7-S744A; [Naltriben] 100 µM
  TRPM7 activation, fold: 2.28 fold and 2.37 fold and 2.20 fold and 1.98 fold
TRPM7-S744A; [Naltriben] 200 µM
  TRPM7 activation, fold: 2.80 fold and 2.90 fold and 2.64 fold and 2.45 fold
TRPM7-S744A; [Naltriben] 300 µM
  TRPM7 activation, fold: 2.94 fold and 3.21 fold and 2.75 fold and 2.67 fold
TRPM7-S744A; [Naltriben] 400 µM
  TRPM7 activation, fold: 2.98 fold and 3.28 fold and 2.68 fold and 2.87 fold
TRPM7-S744A; [Naltriben] 500 µM
  TRPM7 activation, fold: 2.34 fold and 3.39 fold and 2.98 fold and 2.81 fold
TRPM7-L671A/N752K; [Naltriben] 10 µM
  TRPM7 activation, fold: 1.45 fold and 1.00 fold (2×) and 1.20 fold
TRPM7-L671A/N752K; [Naltriben] 20 µM
  TRPM7 activation, fold: 1.02 fold and 0.91 fold and 0.89 fold and 0.95 fold
TRPM7-L671A/N752K; [Naltriben] 30 µM
  TRPM7 activation, fold: 1.09 fold and 0.89 fold and 0.92 fold and 0.98 fold
TRPM7-L671A/N752K; [Naltriben] 40 µM
  TRPM7 activation, fold: 1.10 fold and 0.85 fold and 0.92 fold and 0.96 fold
TRPM7-L671A/N752K; [Naltriben] 50 µM
  TRPM7 activation, fold: 1.13 fold and 0.91 fold and 0.96 fold and 1.00 fold
TRPM7-L671A/N752K; [Naltriben] 100 µM
  TRPM7 activation, fold: 1.32 fold and 1.04 fold (2×) and 1.13 fold
TRPM7-L671A/N752K; [Naltriben] 200 µM
  TRPM7 activation, fold: 1.89 fold and 1.31 fold and 1.45 fold and 1.35 fold
TRPM7-L671A/N752K; [Naltriben] 300 µM
  TRPM7 activation, fold: 2.47 fold and 1.57 fold and 1.69 fold and 1.74 fold
TRPM7-L671A/N752K; [Naltriben] 400 µM
  TRPM7 activation, fold: 2.54 fold and 1.61 fold and 1.91 fold and 1.97 fold
TRPM7-L671A/N752K; [Naltriben] 500 µM
  TRPM7 activation, fold: 2.66 fold and 1.73 fold and 2.02 fold and 2.17 fold
TRPM7 WT; [Naltriben] 10 µM
  TRPM7 activation, fold: 1.19 fold and 1.14 fold and 1.17 fold and 1.15 fold and 1.31 fold and 1.41 fold
TRPM7 WT; [Naltriben] 20 µM
  TRPM7 activation, fold: 1.77 fold and 1.35 fold and 1.40 fold and 1.23 fold and 1.98 fold and 2.06 fold
TRPM7 WT; [Naltriben] 30 µM
  TRPM7 activation, fold: 1.96 fold and 1.81 fold and 1.78 fold and 1.93 fold and 2.40 fold and 2.35 fold
TRPM7 WT; [Naltriben] 40 µM
  TRPM7 activation, fold: 2.43 fold and 1.86 fold and 1.85 fold and 1.83 fold and 2.64 fold and 2.80 fold
TRPM7 WT; [Naltriben] 50 µM
  TRPM7 activation, fold: 2.78 fold and 2.42 fold and 2.07 fold and 2.38 fold and 2.47 fold and 2.97 fold
TRPM7-L671A; [Naltriben] 10 µM
  TRPM7 activation, fold: 0.98 fold and 0.86 fold and 0.97 fold
TRPM7-L671A; [Naltriben] 20 µM
  TRPM7 activation, fold: 1.00 fold and 0.86 fold and 1.08 fold
TRPM7-L671A; [Naltriben] 30 µM
  TRPM7 activation, fold: 1.12 fold and 0.94 fold and 1.03 fold
TRPM7-L671A; [Naltriben] 40 µM
  TRPM7 activation, fold: 1.09 fold and 1.06 fold and 1.04 fold
TRPM7-L671A; [Naltriben] 50 µM
  TRPM7 activation, fold: 1.24 fold and 1.17 fold and 1.14 fold
TRPM7-L671A; [Naltriben] 100 µM
  TRPM7 activation, fold: 1.77 fold and 1.84 fold and 1.54 fold
TRPM7-L671A; [Naltriben] 200 µM
  TRPM7 activation, fold: 2.16 fold and 2.06 fold and 1.99 fold
TRPM7-L671A; [Naltriben] 300 µM
  TRPM7 activation, fold: 2.55 fold and 2.39 fold and 2.20 fold
TRPM7-L671A; [Naltriben] 400 µM
  TRPM7 activation, fold: 2.94 fold and 2.31 fold and 2.40 fold
TRPM7-L671A; [Naltriben] 500 µM
  TRPM7 activation, fold: 2.80 fold and 2.64 fold and 2.55 fold
